Consider 22 molecules from publication PMC12136788.

Some of the results follow.

Sequences and labels used below:
B1: chr6:11583160:11583161:+_ENSG00000205269_ENST00000379426|hu_mus|FALSE|FALSE (ssRNA)
RNA: GGGAGUUCUACAGUCCGACGAUCUUAAAAAUCAAUAGUAUACACUAUUUACAACCUGUUAGGUAUUACAUAUAAACAUAGUUGAAAUAAUCCUUCAGAAUGAAAUUGUUUUAUGUAAACAUGCAACACACACACUCUUACAGUCAACAGAGGAUUGAGCAUCA
B2: chr13:100193275:100193276:-_ENSMUSG00000052727_ENSMUST00000064762|mus_mus|motif|central (ssRNA)
RNA: GGGAGUUCUACAGUCCGACGAUCAGGCUAGAAAUUGUUUCUCUUCACGUGUGGACCAGCCUAACAGCUCCCAUUAAAUUACGGUCUUGUGUGUAUUGAGCUUGUCUGAUGAAGUGAGAAGCAAGUGGGCUUACAGGCAACGAACAACAGAGGAUUGAGCAUCA
B3: chr1:39494564:39494565:+_ENSG00000168653_ENST00000372967|hu_hu|hu_hu_hu_mus_True|58_108 (ssRNA)
RNA: GGGAGUUCUACAGUCCGACGAUCAUGUGCACGUCUCAUCGUUUUGUACCGAAGCAAGCACUCUUCGAAGUCAUCGAAUUCUAUCUUGCACUCCUUUUUCGCCCGGGUCCCACCGAUCCCGUGUGCACACUCUAUCCACUCUUUCAACAGAGGAUUGAGCAUCA
B4: chr6:114267272:114267273:-_ENSG00000196591_ENST00000368632|hu_hu|FALSE|FALSE (ssRNA)
RNA: GGGAGUUCUACAGUCCGACGAUCACAUCGAGCAACAUUACGGAUUGUGUAGCCACCUCCUCCAAGCAUCAGUAAUGGUAAGUUAAAAGUUUUUACAACUUCUACACAUUUAGCAUGACCUUUGACUGUUAGAUUGAAACAACCCAACAGAGGAUUGAGCAUCA
B5: chr4:82449818:82449819:-_ENSMUSG00000028403_ENSMUST00000030110|mus_mus|FALSE|FALSE (ssRNA)
RNA: GGGAGUUCUACAGUCCGACGAUCUGUAAUAAAUGUUUUGUUUUGUAGUAAAAUAGUAUUUUAAGUAAGUUUUUAUAAUGCUAACAAGAUAAGUUGCCAAAAUAAGGUUUAAAGUAAAAUACAUGAAACAGCUUAAACUAAUCGCAACAGAGGAUUGAGCAUCA
B6: chr1:60041781:60041782:+_ENSMUSG00000041040_ENSMUST00000036540|mus_hu|mus_mus_mus_hu_False|68_88 (ssRNA)
RNA: GGGAGUUCUACAGUCCGACGAUCAAGUUUACAAUAGUAAAGUAAAUCAAAUUUAGUCAAAUUUUCUUUACUUUAGUUUCACAAAAGAAAAUCUUUAUAACCCAGUCCUAGUCUUGGACAUAGUGAAAGCUAUAAAUUCUGACUCAACAGAGGAUUGAGCAUCA
B7: chr4:44140560:44140561:-_ENSMUSG00000035696_ENSMUST00000045793|mus_mus|FALSE|FALSE (ssRNA)
RNA: GGGAGUUCUACAGUCCGACGAUCUUAAGUAUUUCUGACACUAACACAAACCUAGGGGCAACAGAAUGUAGGUCAAAUCCUAUUUGUCUAACUAGGUAGAGGCAACAGUGUCUGGAAGAGGACAAAAUUGUGCUUCUGUGUGGACAACAGAGGAUUGAGCAUCA
B8: chr7:135333399:135333400:+_ENSG00000155561_ENST00000285968|hu_mus|motif|central (ssRNA)
RNA: GGGAGUUCUACAGUCCGACGAUCGUCCAUAUAUAAAGAAAGAAAUAGCAAAAUAUCUUUUGGUCAUAAUUUAGAAAUAAAGUCAUCGGUAAAAAAGAGGUGGUUCUCCUCAGUUCAUCUCUUCCACGGAAGAGAGUCAGUUCUCAACAGAGGAUUGAGCAUCA
B9: chr11:96086674:96086675:-_ENSG00000149231_ENST00000278520|hu_hu|FALSE|FALSE (ssRNA)
RNA: GGGAGUUCUACAGUCCGACGAUCUACAUCAGAUAAAAGUUUAAUUAGAGUGUAGAGUGCCACUUCACAGGAAUUAAGAUAAUCAUGUUUUAAACAAAAUAUUUUGCCAUGAAGAUAUAGAUAAAAUGUACAAACAUGUCACAUCAACAGAGGAUUGAGCAUCA
B10: 97191497_97194279_313_CDS_ENSMUSG00000031776_ENSMUST00000034228|mouse|control|control (ssRNA)
RNA: GGGAGUUCUACAGUCCGACGAUCUUCAAAUUCCUGGUAGUACUUGUCCAUGAAGUUUCUCUGCAAUAACUGGAACUCAUCAUCCAUAAUAAUGUCCUCUAAACAUCCAACCACAGCAUCAAAUUCUGCAUCAGAGGCGGAGGACAACAGAGGAUUGAGCAUCA
B11: chr1:158563958:158563959:+_ENSMUSG00000026596_ENSMUST00000166172|mus_mus|FALSE|FALSE (ssRNA)
RNA: GGGAGUUCUACAGUCCGACGAUCUGUCCAUUUAAUAGGAAAUUUGGCUCCAGCAUGAGCAGUGUAGGUAUCUCCAGUCAUCAGUCUACUUAAACCAAAGUCGGCCACUUUCACCACAUGGUUCUCGCCCACUAGGCAGUUCCGCAACAGAGGAUUGAGCAUCA
B12: chr1:231413285:231413286:+_ENSG00000116906_ENST00000366647|hu_hu|motif|central (ssRNA)
RNA: GGGAGUUCUACAGUCCGACGAUCGUUUGUUGUAAUGAGUCCUUCGAUGAGAGUAAUUACGUGACCGAAUUUUCCAUAACGGUUUGUUGAUUAUUAAAGUUUUGCAGUGGCUGGUUUUCCUAUUGGUGUCUUACAACCAAGCAUCAACAGAGGAUUGAGCAUCA
B13: 102631982_102632505_361_5pUTR_ENSG00000166681_ENST00000361298|human|control|control (ssRNA)
RNA: GGGAGUUCUACAGUCCGACGAUCCCUUCACCUCCUCCCAAAGGGCGGUCUUCCUCUCCAUUCUGCAUAGGCUGCUCCAUCUCUUCGUUUUCCUGGGCCUAUCCUUGCAGUCUCCUUCUCCUCCGGAUUCUCGCCGCGAGGUGCCAACAGAGGAUUGAGCAUCA
B14: chr14:76904430:76904431:+_ENSMUSG00000022010_ENSMUST00000022587|mus_mus|mus_mus_mus_hu_True|28_68 (ssRNA)
RNA: GGGAGUUCUACAGUCCGACGAUCUGCAGCCAAAAACACCCUCGUGGAAAAAAAGAGGGAACACCAGCAGCCUGGUUUAAGCUAGAUAAAAUCUUCUGGCUUUCCGCAGCUCAGGGCGAAACAGAAAACGGCAGCCCUAAUUUACAACAGAGGAUUGAGCAUCA
B15: chr14:89307221:89307222:+_ENSG00000165533_ENST00000346301|hu_mus|hu_hu_hu_mus_False|68_68 (ssRNA)
RNA: GGGAGUUCUACAGUCCGACGAUCUCCUGUUUGGUUAGUGCCAGGGAGCUUCAAAGAUGUGCCAGGGCGUGGAACUUGAGCAAUAGCAUUUUCAUCCAGGAUCAUUUCAGCAAUUCCUUCCUGGUCCACAUCAAUUUCAUCUAUCAACAGAGGAUUGAGCAUCA
B16: 83326916_83329933_2518_3pUTR_ENSMUSG00000034832_ENSMUST00000089622|mouse|control|control (ssRNA)
RNA: GGGAGUUCUACAGUCCGACGAUCGAUGCCGCACCAGGCACAGCAGCUUCUCCUCCAGUGUGUGUCUUCGGAUCACCCACUUGGCGAUGGGACAGCCUCGAGAACUCUUCCCCUCCUUGCCCGUGUAGAUGACCUUCUCAAUCCCAACAGAGGAUUGAGCAUCA
B17: chr7:7612872:7612873:+_ENSG00000164654_ENST00000405785|hu_mus|motif|central (ssRNA)
RNA: GGGAGUUCUACAGUCCGACGAUCCUUUGUCAAGGGCUUUGGUUGUUCAGUCAAAGUCAAAACUGGCUUCUCAAAUUUUCGGAGAUCCCAUAUUGCAACCUGACCUUCAUAGAAGGAAGCAACACGAUCGUGGAAGUAAGGGUCCAACAGAGGAUUGAGCAUCA
B18: chr3:141904083:141904084:-_ENSMUSG00000028273_ENSMUST00000029941|mus_hu|FALSE|FALSE (ssRNA)
RNA: GGGAGUUCUACAGUCCGACGAUCGUAUUCAGUUUGCUACUUUGUGUCACCCCUUGCCAUUCUUUUAUCCCCAGUUAAUUAUUAUCUGCAUAUAAUAUAAAUCUGCUAGACCAUAAAUUAACAGCUUUCAGGACAGAUGCCUUGCAACAGAGGAUUGAGCAUCA
B19: chr12:48362563:48362564:+_ENSG00000134291_ENST00000256686|hu_hu|hu_hu_hu_mus_False|18_98 (ssRNA)
RNA: GGGAGUUCUACAGUCCGACGAUCUCCGUCAAGCCCUUCAAGCCCCACUUGCGGGGGAAACUGUAAUCACUUUGUAUGGGGAAGGAAAAGAAACGCCAAAAACUUUCCAAAAAGCGGUUCAAAAAGCAGGCGGGAGGGGGAGGUCAACAGAGGAUUGAGCAUCA
B20: chr14:32000333:32000334:-_ENSMUSG00000021910_ENSMUST00000168206|mus_hu|FALSE|FALSE (ssRNA)
RNA: GGGAGUUCUACAGUCCGACGAUCGUCCCGGAGAUCCAGGUUGACCAGUGAGUAGAGCUUGUGCAGGCCACUCAGACUCUCUAGGAGGUUGCCUGCCAGGUUUAAGGUCUUGAUGUUCCCCAGCUUGGUGUGAAGCCCUUCCAACAACAGAGGAUUGAGCAUCA
B21: chr14:45599971:45599972:-_ENSG00000100442_ENST00000396062|hu_mus|FALSE|FALSE (ssRNA)
RNA: GGGAGUUCUACAGUCCGACGAUCAUAGGCAUUAACCAAAUGGUCCUUAUUAGCAGUCUUGGCAACAUUUUUGAUGUUUCCCAGUAAUUUAUGCUCUGCAAGAAACGAAUCUGAACCGUGAUCCUGCAGAAACUUGAUAAUGUCCAACAGAGGAUUGAGCAUCA
B22: 72380599_72380719_613_CDS_ENSMUSG00000037674_ENSMUST00000093820|mouse|control|control (ssRNA)
RNA: GGGAGUUCUACAGUCCGACGAUCUGGCAGAGCCACCCCGGGGUUGGGGGCGCUGAGGGGAAGCUGCUGAGGGGCAUCGAGCUGCUGUGGUGGCGGCUGUUGUUGUUCCUCUGCCAUCGCUGCUGGAGGGGAGGGAGGGAAGAUCAACAGAGGAUUGAGCAUCA

This experiment concerns the target T1, UNK ZnF1-3 (human, UniProt Q9C0B0 31-174).
T1 sequence: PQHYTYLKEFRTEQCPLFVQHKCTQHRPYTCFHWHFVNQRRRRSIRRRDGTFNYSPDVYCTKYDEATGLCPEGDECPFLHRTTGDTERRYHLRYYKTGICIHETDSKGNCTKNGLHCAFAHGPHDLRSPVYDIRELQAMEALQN
Description: nsRBNS (natural sequence RNA bind-n-seq); RBNS binding buffer (assumed for nsRBNS): 25 mM Tris pH 7.5, 150 mM KCl, 3 mM MgCl2, 0.01% Triton X-100, 500 ug/ml BSA, 20 U/ml SUPERase-In, 4 C; UNK is unkempt and MSI1 is Musashi-1; names of the RNAs are library labels; protein concentration not given here; high values mean tight binding.
As to B1, the binding signal came to 0.509 enrichment R.
Molecule B2 returned a binding signal of 0.899 enrichment R.
B3 returned a binding signal of 0.55 enrichment R.
Next, B4: 1.67 enrichment R; B5: 1.59 enrichment R.
As for B6, the figure is 0.453 enrichment R.
As for B7, the binding signal was 1.84 enrichment R.
Molecule B8 showed a binding signal of 1.75 enrichment R.
Next, B9: 1.7 enrichment R; B10: 1.44 enrichment R; B11: 1 enrichment R.
Next, B12: 0.781 enrichment R.
B13 registered a binding signal of 0.699 enrichment R.
B14 displayed a binding signal of 1.67 enrichment R.
As for B15, the binding signal came to 0.897 enrichment R.
Consider B16, for which the binding signal stood at 1.04 enrichment R.
In turn, B17 returned a binding signal of 0.871 enrichment R.
For B18, the binding signal turned out to be 1.01 enrichment R.
Turning to B19, the binding signal is 2.07 enrichment R.
For the molecule B20, the binding signal came to 1.18 enrichment R.
Consider B21, for which the binding signal is 0.614 enrichment R.
B22 displayed a binding signal of 1.79 enrichment R.
